Laboratory results published in article PMC8110528.

B1: GFP-tagged wild-type MyD88 (cell-free expressed) [human] / itself (parent)
chain: MAAGGPGAGSAAPVSSTSSLPLAALNMRVRRRLSLFLNVRTQVAADWTALAEEMDFEYLEIRQLETQADPTGRLLDAWQGRPGASVGRLLELLTKLGRDDVLLELGPSIEEDCQKYILKQQQEEAEKPLQVAAVDSSVPRTAELAGITTLDDPLGHMPERFDAFICYCPSDIQFVQEMIRQLEQTNYRLKLCVSDRDVLPGTCVWSIASELIEKRCRRMVVVVSDDYLQSKECDFQTKFALSLSPGAHQKRLIPIKYKAMKKEFPSILRFITVCDYTNPCTKSWFWTRLAKALSLP

Variants of: B1
Experiment: single-molecule spectroscopy (average brightness of cell-free expressed GFP-tagged protein)
Conditions: with itself;; read off a plot

Row | Variant | response [photons/ms]
1 | chain 1 D234A | 35
2 | chain 1 F239A | 240
3 | chain 1 F270A | 20
4 | chain 1 F270E | 12
5 | chain 1 G80K | 40
6 | chain 1 K238A | 190
7 | chain 1 K282A | 140
8 | chain 1 L252P | 220
9 | chain 1 P200A | 65
10 | chain 1 P245H | 660
11 | chain 1 R196A | 25
12 | chain 1 R269A | 60
13 | chain 1 R288A | 85
14 | chain 1 S209R | 800
15 | chain 1 S242D | 210
16 | chain 1 S244D | 1100
17 | chain 1 T281P | 890
18 | chain 1 W284A | 35
